In publication PMC6856039 (Investigational New Drugs, 2019):

Tests used:
[1] = test system: wild-type EGFR; details: both in vivo and in vitro; cited from earlier work
[2] = test system: tumor xenograft model; details: preclinical tumor xenograft model, unpublished data
[3] = test system: patients with progressive disease after osimertinib therapy for NSCLC; experiment: Extension phase Cohort C: efficacy after osimertinib treatment; assay type: in vivo, human
Method: The extension phase was conducted in four cohorts (A, B, C, and D) to investigate the safety, PK, and antitumor activity observed with the MTD or lower dose determined in the dose escalation phase. Cohort A comprised patients with T790M mutation-positive NSCLC (confirmed by blood serum sampling) and who had received prior EGFR-TKI therapy as first-line treatment. Cohort B comprised and compared T790M mutation-positive and T790M mutation-negative NSCLC patients who had received at least two prior therapies, with the immediate prior treatment being gefitinib, erlotinib, or afatinib before allocation. Cohort C comprised patients with progressive disease (PD) after osimertinib therapy for NSCLC. Cohort D comprised NSCLC patients with G719X activating mutation in the EGFR.
(§1) Antitumor efficacy was based on objective tumor assessments according to the Response Evaluation Criteria in Solid Tumors criteria (version 1.1, 2009). Computed tomography scans were performed at baseline, every 6 weeks after starting administration, and at the time of discontinuation. The ORR, DCR, and PFS at each phase were assessed according to dose level and regimen. ORR was defined as the proportion of patients in which the best overall response was determined to be CR or PR and was calculated in patients with measurable lesions. DCR was defined as the proportion of patients in which the best overall response was determined to be CR, PR, or stable disease. PFS was defined as the median time from enrollment to PD or death from any cause.
In Cohort C (seven patients who had previously received osimertinib treatment), QD dosing was used because the incidence of interstitial lung disease and Grade 3 embolic and thrombotic events was lower with QD dosing versus BID dosing. Cohort C started with 8 mg/day QD and one patient was registered. Subsequently, the tolerability of 10 mg/day QD was confirmed, and six patients were registered to the 10 mg/day QD group. Of the seven patients in Cohort C, the best responses were stable disease in two patients, PD in three patients, and two patients were not evaluable.

[4] = test system: T790M-negative NSCLC patients; assay type: in vivo, human; details: for Best overall response: Not evaluable / Best overall response: Partial response / Best overall response: Progression disease / Best overall response: Stable disease / Disease control rate / Objective response rate: T790M-negative
Source text: To assess the EGFR T790M mutation tumor status, mandatorily collected plasma from patients was processed, and isolated circulating cell-free DNA (cfDNA) was submitted for laboratory testing (Fluorescence Resonance Energy Transfer-based Preferential Formation Assay [F-PHFA] method) by central review. In some patients, collected tumor biopsies were submitted for EGFR genotyping (Therascreen® EGFR RGQ PCR kit [Qiagen, Venlo, Netherlands]).
as §1

[5] = seven patients, 8 or 10 mg/day QD

C=CC(=O)N[C@H]1CCc2c(-c3cnc4ccccc4c3)c3c(N)ncnc3n2C1 [TAS-121]
effect against wild-type EGFR [1]: moderate to no effect | AUC of the effective dose [2]: 906 ng·h/mL | best response PD, patients [3, 5]: three | best response not evaluable, patients [3, 5]: two | best response stable disease, patients [3, 5]: two | efficacy after progression during osimertinib treatment ([3]; seven registered patients): no clear evidence of efficacy | objective response rate (ORR) ([4]; T790M-negative patients, n = 16, all patients): 19% | Best overall response: Not evaluable ([4]; 4 mg/day QD, N = 5): 1 (20.0) n (%) | Best overall response: Partial response ([4]; 4 mg/day QD, N = 5): 0 (0.0) n (%) | Best overall response: Progression disease ([4]; 4 mg/day QD, N = 5): 2 (40.0) n (%) | Best overall response: Stable disease ([4]; 4 mg/day QD, N = 5): 2 (40.0) n (%) | Disease control rate ([4]; 4 mg/day QD, N = 5): 2 (40.0) n (%) | Objective response rate ([4]; 4 mg/day QD, N = 5): 0 (0.0) n (%) | Best overall response: Not evaluable ([4]; 8 mg/day BID, N = 1): 0 (0.0) n (%) | Best overall response: Partial response ([4]; 8 mg/day BID, N = 1): 0 (0.0) n (%) | Best overall response: Progression disease ([4]; 8 mg/day BID, N = 1): 0 (0.0) n (%) | Best overall response: Stable disease ([4]; 8 mg/day BID, N = 1): 1 (100.0) n (%) | Disease control rate ([4]; 8 mg/day BID, N = 1): 1 (100.0) n (%) | Objective response rate ([4]; 8 mg/day BID, N = 1): 0 (0.0) n (%) | Best overall response: Not evaluable ([4]; 8 mg/day QD, N = 4): 0 (0.0) n (%) | Best overall response: Partial response ([4]; 8 mg/day QD, N = 4): 2 (50.0) n (%) | Best overall response: Progression disease ([4]; 8 mg/day QD, N = 4): 1 (25.0) n (%) | Best overall response: Stable disease ([4]; 8 mg/day QD, N = 4): 1 (25.0) n (%) | Disease control rate ([4]; 8 mg/day QD, N = 4): 3 (75.0) n (%) | Objective response rate ([4]; 8 mg/day QD, N = 4): 2 (50.0) n (%) | Best overall response: Not evaluable ([4]; 10 mg/day QD, N = 3): 0 (0.0) n (%) | Best overall response: Partial response ([4]; 10 mg/day QD, N = 3): 1 (33.3) n (%) | Best overall response: Progression disease ([4]; 10 mg/day QD, N = 3): 0 (0.0) n (%) | Best overall response: Stable disease ([4]; 10 mg/day QD, N = 3): 2 (66.7) n (%) | Disease control rate ([4]; 10 mg/day QD, N = 3): 3 (100.0) n (%) | Objective response rate ([4]; 10 mg/day QD, N = 3): 1 (33.3) n (%) | Best overall response: Not evaluable ([4]; 12 mg/day BID, N = 1): 0 (0.0) n (%) | Best overall response: Partial response ([4]; 12 mg/day BID, N = 1): 0 (0.0) n (%) | Best overall response: Progression disease ([4]; 12 mg/day BID, N = 1): 0 (0.0) n (%) | Best overall response: Stable disease ([4]; 12 mg/day BID, N = 1): 1 (100.0) n (%) | Disease control rate ([4]; 12 mg/day BID, N = 1): 1 (100.0) n (%) | Objective response rate ([4]; 12 mg/day BID, N = 1): 0 (0.0) n (%) | Best overall response: Not evaluable ([4]; 12 mg/day QD, N = 1): 1 (100.0) n (%) | Best overall response: Partial response ([4]; 12 mg/day QD, N = 1): 0 (0.0) n (%) | Best overall response: Progression disease ([4]; 12 mg/day QD, N = 1): 0 (0.0) n (%) | Best overall response: Stable disease ([4]; 12 mg/day QD, N = 1): 0 (0.0) n (%) | Disease control rate ([4]; 12 mg/day QD, N = 1): 0 (0.0) n (%) | Objective response rate ([4]; 12 mg/day QD, N = 1): 0 (0.0) n (%) | Best overall response: Not evaluable ([4]; 16 mg/day QD, N = 1): 0 (0.0) n (%) | Best overall response: Partial response ([4]; 16 mg/day QD, N = 1): 0 (0.0) n (%) | Best overall response: Progression disease ([4]; 16 mg/day QD, N = 1): 1 (100.0) n (%) | Best overall response: Stable disease ([4]; 16 mg/day QD, N = 1): 0 (0.0) n (%) | Disease control rate ([4]; 16 mg/day QD, N = 1): 0 (0.0) n (%) | Objective response rate ([4]; 16 mg/day QD, N = 1): 0 (0.0) n (%) | Best overall response: Not evaluable ([4]; Total, N = 16): 2 (12.5) n (%) | Best overall response: Partial response ([4]; Total, N = 16): 3 (18.8) n (%) | Best overall response: Progression disease ([4]; Total, N = 16): 4 (25.0) n (%) | Best overall response: Stable disease ([4]; Total, N = 16): 7 (43.8) n (%) | Disease control rate ([4]; Total, N = 16): 10 (62.5) n (%) | Objective response rate ([4]; Total, N = 16): 3 (18.8) n (%)

Where two headings read alike, the source gives them in different places.
